# Screen size: about 52,000 compounds; about 4,300 (8.3%) were called active. Rule as the data show it: active = survival mostly below about 52% (no sharp cut-off); inactive = mostly above about 56%. This is one part of the list.
# Tested on: DeltatarO mutant
# Test: S. aureus survival, RN4220 and DeltatarO strains – OD600, teichoic acid synthesis inhibitors, primary screen (AID 463173)
# Settings: S. aureus RN4220 wild type/DeltatarO growth, OD600, 18 h, stronger effect = lower value, screened at 18.75 µg/mL (by protocol)
row,Compound,survival
1,COc1cc(NC(=O)CCN2CCN(CCO)CC2)cc(OC)c1,inactive: 159%
2,COc1cc(CN(C(=O)COc2ccc(F)cc2)c2ccccn2)cc(OC)c1OC,inactive: 81%
3,CCOc1ccc(OCC(=O)Nc2ccc(S(=O)(=O)Nc3cc(C)on3)cc2)cc1,inactive: 83%
4,O=C(NC1CCCC1)C(c1ccncc1)N(Cc1ccco1)C(=O)Cn1nnc(-c2ccc(Cl)cc2)n1 (centres undefined),inactive: 52%
5,CCc1nn(CC(=O)NCCc2ccc(SC)cc2)c(=O)c2cc3sccc3n12,inactive: 117%
6,Cc1ccc(N2CC(C(=O)NC3CC3)CC2=O)cc1Cl (centres undefined),inactive: 89%
7,CCc1cccc(NS(=O)(=O)c2ccc3c(c2)CC(C)N3C(=O)C2CC2)c1 (centres undefined),inactive: 86%
8,CN1/C(=c2/sc(=C3C(=O)NC(=S)NC3=O)n(C)c2=O)Sc2ccccc21,inactive: 87%
9,CCc1c(C)c2ccc(O)c(CN3CCN(c4ccc(F)cc4)CC3)c2oc1=O,inactive: 55%
10,COc1ccccc1C(=O)NCc1nc2cccnc2n1Cc1ccc(F)cc1,inactive: 76%
11,COc1ccc(Cl)cc1NC(=O)CSc1nccn1-c1ccc(Cl)cc1,inactive: 95%
12,CCOCN(C(=O)Cn1c(COC)nc2ccccc21)c1c(C)cccc1CC,inactive: 95%
13,COc1ccccc1OCc1ccc(C(=O)NCc2ccncc2)o1,inactive: 91%
14,COc1ccc(S(=O)(=O)N2Cc3ccccc3CC2C(=O)Nc2cc(Cl)ccc2Cl)cc1 (centres undefined),inactive: 68%
15,CCN=C1S/C(=C\c2cn(CC(=O)NCc3ccco3)c3ccccc23)C(=O)N1CC,inactive: 95%
16,Cc1ccc(C)c(NC(=O)C2CCN(S(=O)(=O)c3c(C)noc3/C=C/c3cccs3)CC2)c1,inactive: 63%
17,Cn1c(/C(C#N)=C/c2ccccc2Br)nc2ccccc21,inactive: 79%
18,CCn1c(CNC(=O)c2ccc(OC)cc2)nnc1SCC(=O)Nc1cc(C)ccc1C,inactive: 112%
19,COc1ccc(CNC(=O)CCCn2nc(C)n3c(cc4sccc43)c2=O)cc1,inactive: 82%
20,COc1ccccc1/C=C/c1nc(C#N)c(NC2CCCCC2)o1,inactive: 85%
21,COCCn1c(C)cc(O)c(C(c2ccccc2OC)N2CCN(c3ccccc3)CC2)c1=O (centres undefined),inactive: 102%
22,COc1ccc(C(=O)NCCn2cc(SCc3ccc(C(F)(F)F)cc3)c3ccccc32)cc1OC,inactive: 72%
23,N#CC(C#N)=Cc1cn(CCCOc2ccccc2Cl)c2ccccc12,inactive: 76%

row,Compound,survival
1,Cc1cccc(NC(=O)CSC2=Nc3ccccc3C3=NC(CC(=O)NCc4cccs4)C(=O)N23)c1 (centres undefined),inactive: 87%
2,Cc1ccc(N2CC(NC(=O)c3ccccc3C(F)(F)F)CC2=O)cc1C (centres undefined),inactive: 55%
3,COc1ccc(Cl)cc1S(=O)(=O)Nc1ccc2[nH]c(=O)[nH]c2c1,inactive: 94%
4,Clc1ccc2c(c1)-n1cc(-c3ccccc3)nc1CO2,inactive: 71%
5,CCc1ccc(S(=O)(=O)c2cn(Cc3ccccc3)c3cc(N4CCCC4)c(F)cc3c2=O)cc1,inactive: 99%
6,COc1ccc(NC(=O)CSc2oc(-c3cccs3)nc2S(=O)(=O)c2ccccc2)c(OC)c1,inactive: 69%
7,Cc1ccc(Cl)cc1N1CCN(C(=O)CCS(=O)(=O)c2cc(Br)cc3c2N(C(=O)C2CC2)CC3)CC1,inactive: 61%
8,O=C(Nc1ccc(C(=O)OCc2cc(=O)n3nc(C4CC4)sc3n2)cc1)c1ccccc1,inactive: 83%
9,Cc1cccc(CNC(=O)c2cc3cc(S(=O)(=O)N4CCCCC4)ccc3n2C)c1,inactive: 87%
10,Cc1ccc(CCNC(=O)Cn2c(-c3cccs3)cc3ccccc32)cc1,inactive: 105%
11,Cc1ccc(NC(=O)CN2C=NS(=O)(=O)c3ccccc32)cc1,inactive: 76%
12,CCOC(=O)COc1ccc(CC)cc1C(=O)c1ccn2nc(-c3ccc(F)cc3)cc2n1,inactive: 73%
13,COc1ccc(-c2noc(CC(=O)N(C)c3cccc(C)c3)n2)cc1,inactive: 68%
14,O=C(Cc1ccccc1)Nc1cccnc1,inactive: 105%
15,COc1ccc(C(=O)c2cn(Cc3ccccc3F)c3cc4c(cc3c2=O)OCCO4)cc1OC,inactive: 82%
16,O=C(Nc1ccc2c(c1)CCCN2C(=O)c1cccs1)c1ccc(F)c(F)c1,inactive: 80%
17,Cc1ccc(-c2c3c(=O)n(C)c(=O)n(C)c3c3n2-c2ccccc2NC3c2ccc(C)cc2O)cc1 (centres undefined),active: 2%
18,COc1cccc(C(c2nnnn2CCC(C)C)N2CCN(Cc3ccccc3)CC2)c1OC (centres undefined),inactive: 101%
19,CCOc1ccc(OCC)c(NC(=O)c2nnn(CC(=O)Nc3cc(Cl)ccc3OC)c2N)c1,inactive: 71%
20,COc1ccc(-c2cc(C(=O)N3CCCCC3C)no2)cc1OC (centres undefined),active: 58%
21,Cc1ccccc1NC(=O)C1CCN(S(=O)(=O)c2c(C)noc2/C=C/c2ccco2)CC1,inactive: 67%
22,COc1ccc(C(=O)NCc2ccc3c(c2)CCN3C(C)=O)c(OC)c1,inactive: 115%
23,CCC(=O)N1CCc2cc(CNC(=O)c3cccc(N(C)C)c3)ccc21,inactive: 84%

row,Compound,survival
1,Cc1ccc(Cn2c(SCc3ccc(C(=O)N4CCCCC4)cc3)nc3ccncc32)cc1,active: 7%
2,CCc1ccccc1N1C(=O)CN(S(=O)(=O)CC)CC1(C)C(=O)NC1CCCCC1 (centres undefined),inactive: 102%
3,CCc1ccccc1NC(=O)Cn1nc(CC)n2c(cc3sccc32)c1=O,inactive: 85%
4,CCOc1ccccc1NC(=O)Nc1nnc(N2CCCC(C)C2)s1 (centres undefined),inactive: 86%
5,O=C(c1ccc(Cl)cc1)N1CCN(CCc2ccncc2)CC1,inactive: 103%
6,Cc1ccc(Cl)cc1N1CCN(S(=O)(=O)c2cn(C)c(C)n2)CC1,inactive: 57%
7,CCOc1ccccc1C1C(C(=O)Nc2ccccc2)=C(C)Nc2nc(SCC(=O)c3ccc(C)cc3)nn21 (centres undefined),inactive: 77%
8,CC1CCCCN1CCCNC(=O)CN1C(=O)c2cccnc2Oc2ccc(Cl)cc21 (centres undefined),inactive: 98%
9,COc1ccc(C(=O)c2sc3nc4c(c(C(F)(F)F)c3c2N)CN(C(C)=O)CC4)cc1OC,inactive: 77%
10,CN(C(=O)CSc1nc(-c2ccccc2)no1)c1ccc(F)cc1,inactive: 96%
11,CCc1ccc(NC(=O)CSc2nc3c(c(=O)[nH]2)CN(Cc2ccc4c(c2)OCO4)CC3)cc1,inactive: 74%
12,Fc1ccc(C(c2nnnn2C2CCCC2)N2CCc3ccccc32)cc1 (centres undefined),inactive: 79%
13,CN(C)N=Nc1ccc(-c2cn(Cc3ccccc3)cn2)cc1,inactive: 68%
14,N#Cc1ccc(N2CCCCC2)cc1,inactive: 95%
15,O=C(COc1ccccc1)NCC(c1ccc(Cl)cc1)N1CCCCC1 (centres undefined),inactive: 77%
16,O=C(CCCc1ccccc1)NC1CC(=O)N(c2cccc(F)c2)C1 (centres undefined),inactive: 120%
17,Cc1ccc(C)c(N2CCN(S(=O)(=O)c3c(C(=O)N4CCC(C)CC4)c(C)n(C)c3C)CC2)c1,inactive: 94%
18,CCOC(=O)c1cc2c(=O)n3ccccc3nc2n(C)c1=NC(=O)c1c(-c2c(F)cccc2Cl)noc1C,inactive: 182%
19,O=C(Nc1ccc(Br)c(Cl)c1)c1ccc(C(=O)Nc2ccc(Br)c(Cl)c2)cc1,inactive: 135%
20,CCOc1ccc(CNC(=O)C2CCN(C(=O)c3ccc(-n4ccc5ccccc54)s3)CC2)cc1,inactive: 115%
21,Cc1cccc(NC(=O)Cn2c(=O)n(CCCCCC(=O)NCc3ccccc3)c(=O)c3sccc32)c1,inactive: 62%
22,O=C(NCc1ccccc1Cl)c1ccccc1NC(=O)c1nsc2ccccc12,inactive: 76%
23,COc1cc(OC)c(NC(=O)c2cnn(-c3ccccc3)c2-n2cccc2)cc1Cl,inactive: 84%

row,Compound,survival
1,CCOc1cc(-c2nc(-c3ccc(-c4ccccc4)nc3OCC)no2)cc(OCC)c1OCC,inactive: 53%
2,COCCCNC(=O)c1cc2c(-c3cccc(OC)c3)nn(C)c2s1,inactive: 68%
3,O=C(CSc1nccn1Cc1ccc(Cl)cc1)Nc1nc2ccccc2s1,active: 32%
4,CCC(=O)N1CCc2cc(Br)cc(S(=O)(=O)Nc3ccccc3C(=O)OC)c21,inactive: 135%
5,COc1ccc(N2CCN(C(=O)c3cc4c(=O)n(Cc5ccco5)ccc4nc3C)CC2)cc1,inactive: 73%
6,Cc1ccccc1CCNC(=O)c1ccc(Cn2c(=O)c3cccn3c3cccnc32)cc1,inactive: 64%
7,CCc1ccc(NC(=O)c2cc(S(=O)(=O)N3CCCC(C)C3)cn2C)cc1 (centres undefined),inactive: 76%
8,COc1ccccc1CNC(=O)C(=O)NCC(c1ccco1)S(=O)(=O)c1ccc(C)cc1 (centres undefined),inactive: 88%
9,COC(=O)C1=C(C)N(C(C)C)C(=O)C1(NC(=O)c1ccccc1OC)C(F)(F)F (centres undefined),inactive: 76%
10,CCCCCn1c(CCCNC(=O)c2ccc(Cl)cc2)nc2ccccc21,inactive: 85%
11,COc1ccc(-c2nc(C(=O)Nc3cccc(C(C)=O)c3)nn2-c2ccccc2Cl)cc1,inactive: 59%
12,COc1ccc(CNC(=O)CCc2nnc3n(C)c(=O)c4sccc4n23)cc1,inactive: 180%
13,CCn1c(SCC(=O)Nc2c(C)cccc2C)nnc1-c1nonc1NC(C)=O,inactive: 121%
14,O=C(NCCC1=CCCCC1)c1ccc2c(c1)N(Cc1ccccc1)C(=O)c1ccccc1S2=O (centres undefined),inactive: 70%
15,CCOC(=O)c1[nH]c(=O)[nH]c1CSC(=N)N,inactive: 88%
16,CN(C)C(=O)C1Cc2ccccc2CN1S(=O)(=O)c1ccc(F)cc1 (centres undefined),inactive: 116%
17,COc1ccc(CCN(Cc2cc3cc(C)ccc3[nH]c2=O)C(=O)N2CCCC2)cc1OC,inactive: 82%
18,Cc1ccc(C(=O)N2CCCCC2CCN2CCCCC2)cc1 (centres undefined),inactive: 76%
19,CCOC(=O)c1c(NC(=O)c2ccc(S(=O)(=O)N(CC)CC)cc2)sc2c1CCCCC2,inactive: 72%
20,O=C(Nc1cccc(C(F)(F)F)c1)Nc1ccc2snnc2c1,active: 11%

# Reference: PubChem BioAssay AID463173 (ICCB-Longwood Screening Facility, Harvard Medical School, 2010)
